Laboratory results taken from patent publication US20210340213A1 (BEIJING VDJBIO, published 2021).

T1: CD80 (UniProt P33681 35-242, limits assumed)
T1 construct: also called B7-1
T1 sequence (looked up): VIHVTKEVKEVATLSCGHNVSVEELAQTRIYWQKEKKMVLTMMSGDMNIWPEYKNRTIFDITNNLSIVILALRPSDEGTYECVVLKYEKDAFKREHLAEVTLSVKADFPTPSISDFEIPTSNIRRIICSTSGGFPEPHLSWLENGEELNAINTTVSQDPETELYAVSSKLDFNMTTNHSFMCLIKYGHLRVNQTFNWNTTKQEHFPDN

T2: CD86 (UniProt P42081 24-247, limits assumed)
T2 construct: also called B7-2
T2 sequence (looked up): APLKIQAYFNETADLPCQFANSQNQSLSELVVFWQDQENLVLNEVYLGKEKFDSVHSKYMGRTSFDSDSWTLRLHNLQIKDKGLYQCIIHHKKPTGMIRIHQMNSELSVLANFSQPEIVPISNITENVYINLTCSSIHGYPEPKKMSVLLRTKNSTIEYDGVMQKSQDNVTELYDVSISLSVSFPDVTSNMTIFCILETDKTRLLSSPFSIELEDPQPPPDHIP

B1: CTLA4-Ig variant 71# (Fc fusion)
chain: MHVAQPAVVLASSRGIASFVCEYASPDKAKATEVRVTVLRQADSQVTEVCAATYMMGNELTFLDDSICTGTSSGNQVNLTIQGLRAMDTGLYICKVELMYPPPYYLGIGNGTQIYVIDPEPCPDSDQ[human IgG1 Fc with changes not given here]
B2: CTLA4-Ig variant 112# (Fc fusion)
chain: MHVAQPAVVLASSRGIASFVCEYASPDKAKATEVRVTVLRQTDSQVTEVCAATYMMGNELTFLDDSICTFTSSGNQVNLTIQGLRAMDTGLYICKVELMYPPPYYLGIGNGTQIYVIDSEPCPDSDQ[human IgG1 Fc with changes not given here]
B3: CTLA4-Ig variant 118# (Fc fusion)
chain: MHVAQPAVVLASSRGIASFVCEYASPDKAKATEVRVTVLRQADSQVTEVCAATYMMGNELTFLDDSICTFTSSGNQVNLTIQGLRAMDTGLYICKVELMYPPPYYLGIGNGTQIYVIDSEPCPDSDQ[human IgG1 Fc with changes not given here]
B4: CTLA4-Ig variant 131# (Fc fusion)
chain: MHVAQPAVVLASSRGIASFVCEYASPDKAKATEVRVTVLRQTDSQVTEVCAATYMMGNELTFLDDSICTFTSSGNQVNLTIQGLRAMDTGLYICKVELMYPPPYYLGIGNGTQIYVIDPEPCPDSDQ[human IgG1 Fc with changes not given here]
B5: CTLA4-Ig variant 96# (Fc fusion)
chain: MHVAQPAVVLASSRGIASFVCEYASPDKKATEVRVTVLRQADSQVTEVCAATYMMGNELTFLDDSICTFTSSGNQVNLTIQGLRAMDTGLYICKVELMYPPPYYLGIGNGTQIYVIDPEPCPDSDQ[human IgG1 Fc with changes not given here]
B6: CTLA4-Ig variant 84# (Fc fusion)
chain: MHVAQPAVVLASSRGIASFVCEYASPDKKATEVRVTVLRQADSQVTEVCAATYMMGNELTFLDDSICTGTSSGNQVNLTIQGLRAMDTGLYICKVELMYPPPYYLGIGNGTQIYVIDPEPCPDSDQ[human IgG1 Fc with changes not given here]
B7: CTLA4-Ig variant 98# (Fc fusion)
chain: MHVAQPAVVLASSRGIASFVCEYASPDKKATEVRVTVLRQADSQVTEVCAATYMMGNELTFLDDSICTETSSGNQVNLTIQGLRAMDTGLYICKVELMYPPPYYLGIGNGTQIYVIDPEPCPDSDQ[human IgG1 Fc with changes not given here]
B8: CTLA4-Ig variant 117# (Fc fusion)
chain: MHVAQPAVVLASSRGIASFVCEYASPKKKATEVRVTVLRQADSQVTEVCAATYMMGNELTFLDDSICTFTSSGNQVNLTIQGLRAMDTGLYICKVELMYPPPYYLGIGNGTQIYVIDPEPCPDSDQ[human IgG1 Fc with changes not given here]
B9: CTLA4-Ig variant 120# (Fc fusion)
chain: MHVAQPAVVLASSRGIASFVCEYASPDKKATEVRVTVLRQTDSQVTEVCAATYMMGNELTFLDDSICTFTSSGNQVNLTIQGLRAMDTGLYICKVELMYPPPYYLGIGNGTQIYVIDPEPCPDSDQ[human IgG1 Fc with changes not given here]
B10: CTLA4-Ig variant 121# (Fc fusion)
chain: MHVAQPAVVLASSRGIASFVCEYASPDKKATEVRVTVLRQADSQVTEVCAATYMMGNELTFLDDSICTFTSSGNQVNVTIQGLRAMDTGLYICKVELMYPPPYYLSIGNGTQIYVIDSEPCPDSDQ[human IgG1 Fc with changes not given here]
B11: CTLA4-Ig variant 122# (Fc fusion)
chain: MHVAQPAVVLASSRGIASFVCEYASPDKKATEVRVTVLRQADSQVTEVCAATYMMGNELTFLDDSICTFTSSGNQVNVTIQGLRAMDTGLYICKVELMYPPPYYLGIGNGTQIYVIDPEPCPDSDQ[human IgG1 Fc with changes not given here]
B12: CTLA4-Ig variant 124# (Fc fusion)
chain: MHVAQPAVVLASSRGIASFVCEYASPDKKATEVRVTVLRQADSQVTEVCAATYMMGNELTFLDDSICTFTSSGNQVNLTIQGLRAMDTGLYICKVELMYPPPYYLGIGNGTQIYVIDSEPCPDSDQ[human IgG1 Fc with changes not given here]
B13: CTLA4-Ig variant 127# (Fc fusion)
chain: MHVAQPAVVLASSRGIASFVCEYASPDKKATEVRVTVLRQADSQVTEVCAATYMMGNELTFLDDSICTFTSSGNQVNLTIQGLRAMDTGLYICKVELMYPPPYYLGIGNGTQIYVIDPEPCPHSDQ[human IgG1 Fc with changes not given here]
B14: CTLA4-Ig variant 134# (Fc fusion)
chain: MHVAQPAVVLASSRGIASFVCEYASPDKKATEVRVTVLRQADSQVTEVCAATYMMGNELTFLDDSICTFTSSGNQVNLTIQGLRAMDTGLYICMVELMYPPPYYLGIGNGTQIYVIDPEPCPDSDQ[human IgG1 Fc with changes not given here]
B15: CTLA4-Ig variant 99# (Fc fusion)
chain: MHVAQPAVVLASSRGIASFVCEYASPDKATEVRVTVLRQADSQVTEVCAATYMMGNELTFLDDSICTFTSSGNQVNLTIQGLRAMDTGLYICKVELMYPPPYYLGIGNGTQIYVIDPEPCPDSDQ[human IgG1 Fc with changes not given here]
B16: CTLA4-Ig variant 132# (Fc fusion)
chain: MHVAQPAVVLASSRGIASFVCEYESPHKANEIRVTVLRQANSQVTEVCAMTYMKGDELTFLDDPSCTGTFSGNQVNLTIQGLRAADTGLYICKVELMYPPPYYLGFGNGTQIYVIDPEPCPDSDQ[human IgG1 Fc with changes not given here]

Key:
CD80 [1] = target: T1, CD80; assay: SPR BIAcore 3000, 25 C; CTLA4-Ig on chip, CD80 analyte
CD86 [2] = target: T2, CD86; assay: SPR BIAcore 3000, 25 C; CTLA4-Ig on chip, CD86 analyte
CD80 [3] = target: T1, CD80; assay: SPR BIAcore 3000, 25 C; CTLA4-Ig on chip, CD80 analyte; remark: listed apart in the source
CD86 [4] = target: T2, CD86; assay: SPR BIAcore 3000, 25 C; CTLA4-Ig on chip, CD86 analyte; remark: listed apart in the source
CD80 [5] = target: T1, CD80; assay: SPR BIAcore 3000, 25 C; CTLA4-Ig on chip, CD80 analyte; remark: listed apart in the source
CD86 [6] = target: T2, CD86; assay: SPR BIAcore 3000, 25 C; CTLA4-Ig on chip, CD86 analyte; remark: listed apart in the source

Binder | Kd (CD80 [5]) | Relative affinity (KD(abatacept)/KD(variant)) (CD80 [5]) | koff (CD80 [5]) | kon (CD80 [5]) | Kd (CD86 [6]) | Relative affinity (KD(abatacept)/KD(variant)) (CD86 [6]) | koff (CD86 [6]) | kon (CD86 [6]) | further results
B1 |  |  |  |  |  |  |  |  | Kd (CD80 [1]): 7.49 nM; Relative affinity (KD(abatacept)/KD(variant)) (CD80 [1]): 2.82; koff (CD80 [1]): 0.00108 s⁻¹; kon (CD80 [1]): 144000 M⁻¹ s⁻¹; Kd (CD86 [2]): 14.2 nM; Relative affinity (KD(abatacept)/KD(variant)) (CD86 [2]): 18.5; koff (CD86 [2]): 0.00487 s⁻¹; kon (CD86 [2]): 343000 M⁻¹ s⁻¹; Kd (CD80 [3]): 2.1 nM; Relative affinity (KD(abatacept)/KD(variant)) (CD80 [3]): 5.1; koff (CD80 [3]): 0.00067 s⁻¹; kon (CD80 [3]): 319000 M⁻¹ s⁻¹; Kd (CD86 [4]): 8.9 nM; Relative affinity (KD(abatacept)/KD(variant)) (CD86 [4]): 9.3; koff (CD86 [4]): 0.00533 s⁻¹; kon (CD86 [4]): 599000 M⁻¹ s⁻¹
B2 | 0.122 nM | 24.5 | 4.24e-05 s⁻¹ | 348000 M⁻¹ s⁻¹ | 0.839 nM | 8.33 | 0.000347 s⁻¹ | 414000 M⁻¹ s⁻¹ | 
B3 | 0.131 nM | 22.8 | 4.24e-05 s⁻¹ | 324000 M⁻¹ s⁻¹ | 0.758 nM | 9.22 | 0.000292 s⁻¹ | 385000 M⁻¹ s⁻¹ | 
B4 | 0.0562 nM | 53.2 | 1.95e-05 s⁻¹ | 347000 M⁻¹ s⁻¹ | 0.705 nM | 9.91 | 0.00029 s⁻¹ | 411000 M⁻¹ s⁻¹ | 
B5 | 0.224 nM | 13.3 | 9.02e-05 s⁻¹ | 403000 M⁻¹ s⁻¹ | 4.55 nM | 1.54 | 0.00302 s⁻¹ | 663000 M⁻¹ s⁻¹ | Kd (CD80 [3]): 1.69 nM; Relative affinity (KD(abatacept)/KD(variant)) (CD80 [3]): 6.33; koff (CD80 [3]): 0.000427 s⁻¹; kon (CD80 [3]): 253000 M⁻¹ s⁻¹; Kd (CD86 [4]): 15.2 nM; Relative affinity (KD(abatacept)/KD(variant)) (CD86 [4]): 5.45; koff (CD86 [4]): 0.0539 s⁻¹; kon (CD86 [4]): 3.55e+06 M⁻¹ s⁻¹
B6 |  |  |  |  |  |  |  |  | Kd (CD80 [1]): 6.04 nM; Relative affinity (KD(abatacept)/KD(variant)) (CD80 [1]): 3.49; koff (CD80 [1]): 0.00235 s⁻¹; kon (CD80 [1]): 389000 M⁻¹ s⁻¹; Kd (CD86 [2]): 57.8 nM; Relative affinity (KD(abatacept)/KD(variant)) (CD86 [2]): 4.55; koff (CD86 [2]): 0.138 s⁻¹; kon (CD86 [2]): 2.38e+06 M⁻¹ s⁻¹
B7 |  |  |  |  |  |  |  |  | Kd (CD80 [3]): 17.3 nM; Relative affinity (KD(abatacept)/KD(variant)) (CD80 [3]): 0.62; koff (CD80 [3]): 0.00231 s⁻¹; kon (CD80 [3]): 134000 M⁻¹ s⁻¹; Kd (CD86 [4]): 49.4 nM; Relative affinity (KD(abatacept)/KD(variant)) (CD86 [4]): 1.68; koff (CD86 [4]): 0.11 s⁻¹; kon (CD86 [4]): 2.22e+06 M⁻¹ s⁻¹
B8 | 0.631 nM | 4.74 | 0.000181 s⁻¹ | 287000 M⁻¹ s⁻¹ | 4.68 nM | 1.49 | 0.00236 s⁻¹ | 504000 M⁻¹ s⁻¹ | 
B9 | 0.13 nM | 23 | 5.04e-05 s⁻¹ | 389000 M⁻¹ s⁻¹ | 4.09 nM | 1.71 | 0.00274 s⁻¹ | 670000 M⁻¹ s⁻¹ | 
B10 | 0.0785 nM | 38.1 | 2.66e-05 s⁻¹ | 339000 M⁻¹ s⁻¹ | 4.58 nM | 1.53 | 0.00259 s⁻¹ | 566000 M⁻¹ s⁻¹ | 
B11 | 0.0425 nM | 70.3 | 1.41e-05 s⁻¹ | 331000 M⁻¹ s⁻¹ | 4.13 nM | 1.69 | 0.00229 s⁻¹ | 554000 M⁻¹ s⁻¹ | 
B12 | 0.21 nM | 14.2 | 7.43e-05 s⁻¹ | 354000 M⁻¹ s⁻¹ | 4.95 nM | 1.41 | 0.00324 s⁻¹ | 654000 M⁻¹ s⁻¹ | 
B13 | 0.165 nM | 18.1 | 6.78e-05 s⁻¹ | 411000 M⁻¹ s⁻¹ | 4.25 nM | 1.64 | 0.00296 s⁻¹ | 695000 M⁻¹ s⁻¹ | 
B14 | 0.093 nM | 32.1 | 2.99e-05 s⁻¹ | 322000 M⁻¹ s⁻¹ | 4.35 nM | 1.61 | 0.00279 s⁻¹ | 642000 M⁻¹ s⁻¹ | 
B15 |  |  |  |  |  |  |  |  | Kd (CD86 [4]): 11.2 nM
B16 | 0.425 nM | 7.03 | 0.000121 s⁻¹ | 285000 M⁻¹ s⁻¹ | 0.27 nM | 25.9 | 0.000117 s⁻¹ | 434000 M⁻¹ s⁻¹ | 

Read-outs that look alike come from different tables or passages of the source.
